Experimental data published in the supplement of paper PMC7826260.
The other results are listed elsewhere or left out. Cleavage of a single-stranded DNA pool by Rep nickase domains was read by sequencing (3 µM enzyme, 1 h, 37 °C); shown is the middle of each 90-letter strand. Numbers give uncut DNA relative to the enzyme-free pool, as log2; uncut sequences lie near 0, cut ones below; no hit call is given. Because reads are shares of a total, they shift together; values above 0 arise when much of the pool is cut.

Experiments:
Experiment in all cases: uncleaved DNA left, log2 of reads against the no-enzyme library (log2 ratio); higher = less cleavage (more negative = more Rep cleavage of the k-mer); sequences stand for … in CTCGTCCG…ACCGGAGA
[1] = system: T1, Rep nickase domain of Muscovy duck circovirus
T1 sequence (protein, residues 1-111, tag omitted): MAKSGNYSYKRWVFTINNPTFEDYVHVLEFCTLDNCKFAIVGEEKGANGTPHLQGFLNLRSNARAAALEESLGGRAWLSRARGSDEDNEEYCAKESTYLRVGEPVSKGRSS
Experimental: (§1)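 A pool of 90-nt single-stranded DNAs with seven random bases just before the constant AC of the nick site (name = the seven bases) was cut by 3 µM recombinant His6-SUMO-tagged Rep nickase domain (300 nM DNA, 50 mM HEPES pH 8.0, 50 mM NaCl, 1 mM MnCl2, 1 h, 37 °C, three replicates). Uncut DNA was amplified and sequenced.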

[2] = system: T2, Rep nickase domain of banana bunchy top virus
T2 sequence (protein, residues 1-94, tag omitted): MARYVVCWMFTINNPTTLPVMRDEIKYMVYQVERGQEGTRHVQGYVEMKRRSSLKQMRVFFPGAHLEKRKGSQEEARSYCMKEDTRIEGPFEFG
Experimental: as §1

[3] = system: T3, Rep nickase domain of cabbage leaf curl virus
T3 sequence (protein, residues 1-116, tag omitted): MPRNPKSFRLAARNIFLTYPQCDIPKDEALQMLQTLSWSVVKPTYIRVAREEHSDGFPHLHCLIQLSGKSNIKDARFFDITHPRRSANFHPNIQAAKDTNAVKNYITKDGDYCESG
Experimental: as §1

[4] = system: T4, Rep nickase domain of chickpea chlorotic dwarf virus
T4 sequence (protein, residues 1-124, tag omitted): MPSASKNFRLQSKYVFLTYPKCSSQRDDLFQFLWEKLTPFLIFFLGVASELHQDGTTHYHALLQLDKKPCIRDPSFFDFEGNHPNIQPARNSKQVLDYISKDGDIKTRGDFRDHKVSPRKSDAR
Experimental: as §1

[5] = system: T5, Rep nickase domain of faba bean necrotic yellows virus
T5 sequence (protein, residues 1-98, tag omitted): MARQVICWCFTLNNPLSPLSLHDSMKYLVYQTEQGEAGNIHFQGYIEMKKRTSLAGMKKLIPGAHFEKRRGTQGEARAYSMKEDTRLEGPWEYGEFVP
Experimental: as §1

[6] = system: T6, Rep nickase domain of maize striate mosaic virus
T6 sequence (protein, residues 1-117, tag omitted): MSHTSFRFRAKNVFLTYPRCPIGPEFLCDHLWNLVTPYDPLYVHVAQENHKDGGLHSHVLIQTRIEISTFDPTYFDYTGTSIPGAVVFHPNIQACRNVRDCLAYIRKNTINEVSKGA
Experimental: as §1

[7] = system: T7, Rep nickase domain of porcine circovirus 2
T7 sequence (protein, residues 2-116, tag omitted): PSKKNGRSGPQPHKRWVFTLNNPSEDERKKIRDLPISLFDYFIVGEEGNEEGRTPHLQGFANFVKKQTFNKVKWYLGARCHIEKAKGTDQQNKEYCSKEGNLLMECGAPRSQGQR
Experimental: as §1

[8] = system: T8, Rep nickase domain of tomato golden mosaic virus
T8 sequence (protein, residues 1-124, tag omitted): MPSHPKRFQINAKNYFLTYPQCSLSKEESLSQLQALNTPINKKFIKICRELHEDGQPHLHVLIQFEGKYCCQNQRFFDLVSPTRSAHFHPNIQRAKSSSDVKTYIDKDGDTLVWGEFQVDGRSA
Experimental: as §1

[9] = system: T9, Rep nickase domain of tomato yellow leaf curl virus
T9 sequence (protein, residues 1-136, tag omitted): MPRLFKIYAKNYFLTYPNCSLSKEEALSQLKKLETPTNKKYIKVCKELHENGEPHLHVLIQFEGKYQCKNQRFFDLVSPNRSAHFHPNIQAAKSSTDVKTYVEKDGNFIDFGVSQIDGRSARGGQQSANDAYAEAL
Experimental: as §1

[10] = system: T10, Rep nickase domain of wheat dwarf virus
T10 sequence (protein, residues 1-137, tag omitted): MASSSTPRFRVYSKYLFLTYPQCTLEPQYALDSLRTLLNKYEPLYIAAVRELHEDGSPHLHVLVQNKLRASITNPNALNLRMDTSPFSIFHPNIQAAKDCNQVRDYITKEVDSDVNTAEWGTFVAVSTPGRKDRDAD
Experimental: as §1

Sequence | uncleaved DNA left (log2) [1] | uncleaved DNA left (log2) [2] | uncleaved DNA left (log2) [3] | uncleaved DNA left (log2) [4] | uncleaved DNA left (log2) [5] | uncleaved DNA left (log2) [6] | uncleaved DNA left (log2) [7] | uncleaved DNA left (log2) [8] | uncleaved DNA left (log2) [9] | uncleaved DNA left (log2) [10]
TTTCTTG | 0.0449 | -0.0289 | -0.389 | -1.9 | 0.0589 | -1.09 | -0.0312 | -0.153 | 0.0592 | -0.0805
ACGGGGG | 0.115 | -0.00939 | 0.275 | 0.528 | 0.0279 | 0.285 | 0.154 | 0.053 | -0.0124 | -0.0248
ACGTTCC | 0.0507 | 0.0287 | 0.0549 | 0.22 | 0.0476 | -0.0667 | 0.0637 | 0.154 | -0.0465 | 0.018
AACGCAC | -0.0548 | -0.00313 | -0.317 | -0.107 | 0.0799 | -0.579 | 0.144 | 0.0959 | -0.0557 | 0.000977
ATCCTAT | 0.0292 | 0.0477 | 0.168 | -0.718 | 0.22 | -0.687 | -0.101 | 0.0769 | -0.0239 | -0.0115
ATGTACG | 0.12 | -0.00712 | -0.742 | -0.0167 | 0.0545 | -0.951 | 0.168 | -0.0416 | 0.0861 | -0.0486
TAGTCAT | -0.238 | -0.9 | 0.0186 | -0.745 | -0.366 | 0.938 | -3.83 | 0.0665 | 0.238 | 0.173
TTAGCTG | 0.00593 | -0.00116 | 0.32 | 1.33 | -0.039 | 1.65 | 0.0726 | -0.0294 | -0.104 | -0.02
GAGCTAT | 0.00768 | -0.0906 | 0.17 | 0.451 | -0.0956 | 1.08 | -1.88 | -0.0572 | 0.041 | 0.0709
TGTAGAC | 0.145 | 0.2 | 0.551 | 0.971 | 0.206 | 1.02 | 0.229 | 0.115 | 0.26 | 0.237
GAGAGGG | 0.137 | 0.169 | 0.131 | 0.507 | 0.232 | 0.195 | 0.235 | 0.216 | 0.0647 | 0.124
ATAATTT | -0.00609 | -0.0644 | 0.325 | -2.64 | 0.0824 | -0.772 | -0.337 | 0.0796 | 0.0118 | -0.0284
CTCTTCT | -1.41 | -0.201 | -0.176 | -2.42 | -0.202 | -0.939 | -3.23 | -0.108 | -0.0463 | -0.113
ACCCCTT | 0.0797 | 0.025 | 0.201 | -1.81 | 0.119 | -0.0131 | -0.111 | 0.0895 | 0.00301 | -0.011
CTCCTTC | -0.0424 | -0.116 | 0.0113 | -0.322 | -0.123 | -0.856 | -0.0451 | -0.0838 | -0.118 | 0.018
TCGGAGA | -0.132 | -0.0615 | 0.259 | 0.561 | -0.155 | 0.174 | -0.0735 | -0.0854 | -0.238 | -0.00253
GACTCAG | 0.0396 | 0.0293 | -0.524 | -0.544 | 0.0884 | -0.868 | 0.04 | 0.00346 | 0.0503 | -0.0262
TAGCGGA | 0.104 | 0.141 | -0.0624 | -0.167 | -0.0125 | -0.399 | -0.0348 | 0.12 | -0.0231 | -0.0731
TCAGAAA | 0.111 | 0.139 | 0.135 | 0.216 | 0.0764 | -0.306 | 0.0234 | 0.156 | 0.0598 | 0.0421
GGGAAGT | 0.0767 | 0.157 | 0.818 | 2.05 | 0.0657 | 2.3 | 0.171 | -0.0557 | 0.11 | 0.19
TACAGAA | -0.0461 | -0.0784 | -0.0737 | -0.771 | 0.00596 | -0.734 | -0.112 | -0.0968 | -0.108 | -0.0818
CTCCAAC | 0.024 | -0.173 | -0.15 | -1.43 | -0.126 | -0.672 | -0.00426 | -0.115 | -0.195 | -0.128
AACGTGC | -0.0131 | -0.00959 | -0.477 | -0.695 | -0.0289 | -1.07 | 0.0963 | 0.000816 | 0.138 | -0.0918
TGAGCCG | 0.164 | 0.0854 | -0.558 | -0.472 | 0.0728 | -0.847 | 0.297 | 0.0334 | 0.0997 | 0.0765
GGCAATG | 0.147 | 0.107 | 0.244 | 0.951 | 0.0911 | 1.57 | 0.163 | 0.136 | 0.056 | 0.0911
AGCTAGA | 0.0646 | 0.0684 | 0.128 | 0.703 | 0.0223 | 0.299 | -0.129 | 0.0676 | -0.0549 | 0.0777
GGGGTCT | 0.00662 | 0.147 | 0.818 | 1.84 | 0.0319 | 2.25 | 0.159 | 0.0597 | 0.117 | 0.201
ACCGGGT | -0.104 | -0.119 | 0.364 | 0.672 | -0.0244 | 1.34 | 0.182 | -0.072 | -0.128 | 0.0621
CAACCGA | -0.0725 | -0.0358 | -0.377 | -1.09 | -0.04 | -0.925 | -0.0827 | -0.0306 | 0.0737 | -0.0113
CGCCTTT | 0.00358 | 0.12 | -0.0592 | -1.2 | 0.16 | -0.154 | -0.232 | -0.215 | -0.00619 | -0.0174
